The supplement of paper PMC3334620
The full ranking holds about 33,000 sequences; the median of “E-score (-0.5 to 0.5)” is about -0.032, and the highest 2% start at about 0.36. The list shows a part of the results.

What follows are sequences tested against T1, Sko1 (UniProt Q02100) (assay: PBM E-score (8-mer binding enrichment) (E-score (-0.5 to 0.5)); higher = stronger / more preferred TF binding; most listed sequences are background and not binding sites). Details: protein concentration: 200 nM; construct: GST-full length.
T1 sequence: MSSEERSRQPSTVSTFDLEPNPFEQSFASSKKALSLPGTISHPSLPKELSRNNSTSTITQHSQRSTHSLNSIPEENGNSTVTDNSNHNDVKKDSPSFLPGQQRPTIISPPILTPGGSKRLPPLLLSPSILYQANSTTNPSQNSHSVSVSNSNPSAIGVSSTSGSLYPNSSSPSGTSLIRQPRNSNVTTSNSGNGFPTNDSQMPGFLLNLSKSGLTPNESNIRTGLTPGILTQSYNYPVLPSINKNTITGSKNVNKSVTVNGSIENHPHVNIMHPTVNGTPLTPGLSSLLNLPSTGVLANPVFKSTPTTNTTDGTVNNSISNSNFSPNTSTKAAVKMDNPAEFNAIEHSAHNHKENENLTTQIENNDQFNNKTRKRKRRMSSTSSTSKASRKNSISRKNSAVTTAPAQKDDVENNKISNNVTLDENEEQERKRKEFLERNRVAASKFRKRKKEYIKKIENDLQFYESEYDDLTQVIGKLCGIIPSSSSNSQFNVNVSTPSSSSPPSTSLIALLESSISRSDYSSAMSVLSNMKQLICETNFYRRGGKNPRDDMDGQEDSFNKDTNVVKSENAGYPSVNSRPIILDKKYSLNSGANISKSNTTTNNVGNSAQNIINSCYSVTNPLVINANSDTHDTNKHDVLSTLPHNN
Experimental: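 Universal 'all 10-mer' protein binding microarrays (Agilent AMADID 015681) probed with GST-tagged S. cerevisiae TFs (full-length or DBD) made by in vitro transcription/translation (PURExpress), about 100-200 nM. Bound TF was detected with fluorescent anti-GST. Each ungapped 8-mer (which stands for itself and its reverse complement) is scored by the PBM enrichment score (E-score), a modified Wilcoxon-Mann-Whitney statistic from -0.5 to +0.5, computed with the Universal PBM Analysis Suite. Scale: above 0.35 generally sequence-specific binding.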

| Sequence | PBM E-score |
| --- | --- |
| AGGGGATG | -0.0368 |
| AGATGCCG | 0.00796 |
| AAGTAGGC | -0.0531 |
| ACGATGGA | 0.0944 |
| CGGAACCA | -0.045 |
| CGGCCCAA | -0.27 |
| ATTGATGA | 0.147 |
| ACCGCGAG | -0.0548 |
| TTAGTAAA | 0.162 |
| GACTAGCC | -0.311 |
| TCTATAAA | 0.282 |
| CCCATGCA | 0.0383 |
| ACAACTAT | 0.0583 |
| CATCTTAC | 0.228 |
| AGCATAGG | -0.144 |
| ACACTAGA | -0.0027 |
| ATAGTCGA | 0.184 |
| CGGATATC | -0.00741 |
| ACCTATCG | -0.0463 |
| ATGGCTTA | 0.0716 |
| TTCACGAA | 0.183 |
| ACAAGGGG | -0.179 |
| TACTTTAA | 0.0617 |
| AGGGCTTC | -0.127 |
| ATCAAGAT | 0.0875 |

| Sequence | PBM E-score |
| --- | --- |
| GGCCGATA | 0.0322 |
| GCCATTAC | 0.124 |
| CAGGCCCC | -0.271 |
| CATTCCGG | -0.327 |
| CCAATATA | 0.104 |
| GCTATAGC | -0.168 |
| CAGCAATA | -0.0584 |
| CCCCAGTC | -0.262 |
| AAGCTAGG | -0.198 |
| GCCCTTTA | -0.273 |
| GCTTGTTA | -0.0288 |
| AATAAGCT | 0.0887 |
| ACCACCAT | 0.00571 |
| GATTTAAA | 0.0288 |
| CGTCTTGC | 0.101 |
| AGAATCCG | -0.0518 |
| AATCTTCT | -0.078 |
| TCGGGAGA | -0.177 |
| ATGCCCCA | -0.19 |
| CGACTAGC | -0.236 |
| CTGTCTTA | 0.00021 |
| AGACACGG | -0.178 |
| CAAGGAGG | -0.0002 |
| AGCCGAGA | -0.279 |
| GGCACCCC | -0.247 |

| Sequence | PBM E-score |
| --- | --- |
| CTGCGAAG | 0.00168 |
| AACAGAGC | -0.146 |
| CTGTGACA | 0.169 |
| ATCAGGAA | 3e-05 |
| CCGCTGCA | -0.0363 |
| ATAGACGC | 0.0915 |
| AACATCTG | -0.0833 |
| CAACAACC | -0.0035 |
| AAGATCAT | 0.0659 |
| CTAAGTTA | 0.101 |
| CCTCTGAC | 0.0928 |
| CGAGCCAC | -0.171 |
| TCCTCAGA | -0.146 |
| CGCGCAAG | 0.0759 |
| ACATTTTG | 0.127 |
| GTACGCTA | 0.232 |
| ACAGAAGA | 0.174 |
| CCGAATAA | 0.0785 |
| CCACAAAG | -0.101 |
| ACCCACAT | -0.114 |
| ACGGTGTG | -0.226 |
| CGTCTCCC | -0.1 |
| AACACGCA | 0.285 |
| AGTACAAT | 0.177 |
| AGACTTGA | 0.0227 |

| Sequence | PBM E-score |
| --- | --- |
| GCATGCGC | 0.182 |
| TGTTGGAA | 0.0481 |
| CATGCCCC | -0.149 |
| GGCTCAAC | -0.172 |
| TGTGCAAA | 0.182 |
| CATATCTA | 0.138 |
| CCGAAATC | 0.0145 |
| CCCTTACG | 0.326 |
| CGTCTTAC | 0.224 |
| AGCGGGTA | -0.167 |
| AGACGCAA | 0.258 |
| GCAGAGGC | -0.254 |
| AAATAACG | 0.306 |
| ATCGCCTG | -0.268 |
| CGGGCGAG | -0.218 |
| GGGCAGAA | -0.0113 |
| GGATTCTA | -0.0972 |
| CACTTTAG | -0.0915 |
| ATTGAGAC | 0.0754 |
| GGATGTAA | 0.134 |
| CTCGTAGC | -0.0204 |
| ATCTGTTC | 0.00362 |
| AGCAGATC | -0.0181 |
| ATATTTGC | 0.206 |
| ATCGCAGG | -0.143 |

| Sequence | PBM E-score |
| --- | --- |
| GAGCGTGC | -0.0637 |
| GCCAGCAC | -0.199 |
| GTTAGGAA | -0.0319 |
| TCCGGAAA | -0.0446 |
| CGCACCCG | -0.167 |
| TCGACGAA | 0.157 |
| ATGCCCGC | -0.227 |
| CACATGAG | -0.12 |
| TAGACGCA | 0.175 |
| ACTTAAAC | 0.0662 |
| CAACTACC | -0.0488 |
| CGAGCGCA | 0.0373 |
| AGCGAGGA | -0.147 |
| CCGGGCGC | -0.306 |
| CATGAAAG | 0.00024 |
| CATACGGA | -0.00572 |
| AGGGCAAA | -0.119 |
| ATGTGTTC | -0.0326 |
| GCTGCAAC | -0.13 |
| GCGCAAAC | 0.101 |
| CCGGGCGA | -0.294 |
| AGGACGGA | -0.156 |
| GCATAATA | 0.263 |
| AAGCAGGG | -0.173 |
| ATGACACG | 0.245 |

| Sequence | PBM E-score |
| --- | --- |
| AAACCGAG | -0.175 |
| AGCGTCGC | -0.0959 |
| ACAATTTG | 0.0263 |
| GGTGGGGA | -0.0645 |
| AAACTGTA | 0.058 |
| CACTAAAC | 0.0741 |
| AAACGGCG | -0.0793 |
| AGTGTAAT | 0.0179 |
| AAATATAA | 0.156 |
| CCACGAGG | -0.196 |
| CTGTCCAC | -0.206 |
| ACTACAGC | -0.225 |
| GGGCTGAA | -0.0664 |
| ATCGATTC | -0.0207 |
| CGTTGCCA | 0.0742 |
| CACACACG | 0.204 |
| AGAGATAA | 0.04 |
| CGTGGACC | -0.193 |
| AGTTTTTC | 0.0954 |
| AACGCAGA | 0.00294 |
| ATCGGCTG | -0.141 |
| GTGTCCCA | -0.0921 |
| GGAGGCAA | -0.309 |
| CAGCGAAC | -0.0146 |
| AGGTCGAG | -0.275 |

| Sequence | PBM E-score |
| --- | --- |
| GCGCAATA | 0.0795 |
| ATCAGGGG | -0.332 |
| GGCACATA | 0.0958 |
| AGAAGGGC | -0.225 |
| GTAATATA | 0.374 |
| CGGGCACG | -0.0149 |
| AACCTTCT | -0.298 |
| ACGTCGCA | 0.323 |
| ACTGGGCA | -0.203 |
| GTATGCTA | 0.194 |
| CCGCTAGG | -0.218 |
| CACCACAA | 0.0375 |
| AATTTCAA | 0.153 |
| ACAAACCT | -0.0212 |
| CTCGTAAC | 0.253 |
| GTAAGAAC | 0.249 |
| ATATAAGG | 0.0146 |
| TATCACGA | 0.166 |
| CCATCAGG | -0.22 |
| CGGACACC | -0.19 |
| TAGTCTGA | 0.0141 |
| AGCGGAGC | -0.27 |
| GTCCGACA | 0.0675 |
| GGGCGTTA | 0.0396 |
| GGCAAATA | 0.125 |

| Sequence | PBM E-score |
| --- | --- |
| CATCGGGA | 0.0116 |
| ATGATTTA | 0.178 |
| ACACCGAC | -0.0294 |
| GTCCCATA | -0.072 |
| CAGGAGGG | -0.101 |
| CCGCCGCA | -0.145 |
| CGTCCACA | 0.0327 |
| CTCTCATC | -0.0637 |
| CCCGGATA | -0.207 |
| CGGATCAA | -0.0256 |
| AAGATGTA | 0.206 |
| CATAATTA | 0.304 |
| CTCCGAGC | -0.157 |
| ACGGGTTC | -0.296 |
| ACCCTAAT | -0.0571 |
| GGCTCTAC | -0.201 |
| TAAGACAA | 0.15 |
| GCAACCAA | 0.0415 |
| CTTCCCAC | -0.0483 |
| ATCGACGG | -0.226 |
| GACCCTCC | -0.292 |
| TCAACGCA | 0.195 |
| GGAACACC | -0.253 |
| AGAACTAA | 0.0418 |
| GACGGTGA | -0.0192 |

| Sequence | PBM E-score |
| --- | --- |
| CCATTCGA | 0.0551 |
| CGTAGAGC | 0.116 |
| AAGTAGCC | -0.333 |
| GACGTGGA | 0.23 |
| AGAGAGAC | -0.133 |
| GCGAATTA | 0.232 |
| ACAATTGG | -0.186 |
| GAGCTTGC | -0.0565 |
| AACATTTC | 0.129 |
| CCGACTCC | -0.294 |
| TAAAAGGA | -0.088 |
| CTTGCGTC | 0.27 |
| GGTAATCA | 0.0412 |
| AGTTTACA | 0.17 |
| AAATCCAT | 0.212 |
| AGCTACAG | -0.278 |
| ATGTGAAT | 0.162 |
| CCAAGCGC | -0.147 |
| AAAGAAGC | -0.0191 |
